Test results reported in PubChem BioAssay AID463173 (ICCB-Longwood Screening Facility, Harvard Medical School, 2010).
The whole screen tested about 52,000 compounds, of which about 4,300 (8.3%) were called active. Rule as the data show it: active = survival mostly below about 52% (no sharp cut-off); inactive = mostly above about 56%. This is one part of the list.

These compounds were tested on DeltatarO mutant (assay: growth inhibition of S. aureus wild type versus tarO mutant, primary screen, teichoic acid synthesis inhibitors, RN4220, OD600 (AID 463173)). Details: OD600, 18 h, active compounds read low, screened at 18.75 µg/mL (by protocol).

Compound | survival
Cc1ccc(-c2noc(-c3cc(-c4ccc(F)cc4)n[nH]3)n2)cc1 | inactive: 101%
Cc1cc(C)cc(NC(=O)CNS(=O)(=O)c2ccc3nc(C)sc3c2)c1 | inactive: 74%
O=c1[nH]c2ccc(Cl)cc2c(-c2ccccc2)c1N1CCOCC1 | inactive: 65%
CC(=O)c1ccc(N2CCN(C(=O)CCn3cnc4onc(-c5ccc(F)cc5)c4c3=O)CC2)cc1 | active: -5%
CC(Sc1nc(-c2ccccc2)cc(C(F)(F)F)n1)C(=O)N1CCCC1 (stereo unspecified) | inactive: 101%
CCOC(=O)c1ccc(NC(=O)CSc2nccn2-c2cc(C)cc(C)c2)cc1 | inactive: 67%
CCOc1ccccc1NC(=O)Nc1cc2c(cc1N1CCCCC1)n(CC)c(=O)n2CC | inactive: 96%
O=C1CC(c2ccc(F)cc2)c2c(c3ccccc3[nH]c2=O)O1 (stereo unspecified) | inactive: 65%
CCOc1ccccc1CNCc1c(C(=O)O)n(Cc2ccc(F)cc2)c2cc(C)ccc12 | inactive: 85%
CCc1cc2c(cc3c(=O)n(CC(=O)NCc4cc(Br)ccc4OC)ncn32)s1 | inactive: 111%
CCN(CC)S(=O)(=O)c1ccc2oc(C(=O)Nc3cc(C)ccc3OC)c(C)c2c1 | inactive: 80%
CN1C(=O)Cc2cc(S(=O)(=O)CCC(=O)Nc3ccc(OC(F)(F)F)cc3)ccc21 | inactive: 71%
CCC(=O)OCCn1c(=O)c2ccccc2c2ccccc2c1=O | inactive: 91%
Cc1ccc(S(=O)(=O)N2CCCC2C(N)=O)cc1 (stereo unspecified) | inactive: 59%
Cc1ccc(NC(=O)CN2C(=O)c3ccccc3Sc3ccc(C(=O)N4CCOCC4)cc32)c(Cl)c1 | active: -5%
CCN(C(=O)C1CCCN(c2ncnc3c2nc2n3CCCCC2)C1)c1cccc(C)c1 (stereo unspecified) | inactive: 75%
Cc1ccc(NC(=O)c2ncoc2-c2ccco2)cc1Cl | inactive: 91%
Cc1cccc(C)c1NC(=O)Cn1c(SCC(=O)NCc2ccccc2)nc2ccccc21 | inactive: 87%
CCOC(=O)c1[nH]c(C)c(CCC(=O)Nc2cccc(SC)c2)c1C | inactive: 67%

Compound | survival
COc1ccc2cc(CNc3ccc(OC)c(OC)c3)c(=O)n(CC(=O)Nc3ccccc3F)c2c1 | inactive: 120%
CCOc1ccc(NC(=O)C2CCN(S(=O)(=O)c3c(C)noc3/C=C/c3cccs3)CC2)cc1 | inactive: 97%
CCOc1ccc(-c2nnc(SCC(=O)c3ccccc3)n2-c2ccccc2)cc1 | inactive: 136%
Cn1cccc1-c1cc2n(n1)CCC(=O)N2CCCC(=O)NCc1ccc(F)cc1 | inactive: 88%
COc1ccc(C(=O)Nc2ccc3oc(-c4ccc5ccccc5c4)nc3c2)cc1Br | inactive: 63%
N#CCn1c2ccc(Cl)cc2c2nc3ccccc3nc21 | inactive: 108%
COc1cccc(C(=O)N(Cc2ccco2)c2ccccn2)c1 | inactive: 97%
O=C(CNC(=O)c1ccccc1F)OCc1cc(=O)n2nc(C3CCCCC3)sc2n1 | inactive: 98%
CC(C)CCNC(=O)c1ccc2c(c1)N(Cc1ccccc1F)C(=O)c1ccccc1S2(=O)=O | inactive: 76%
O=S(=O)(c1ccc(-c2csc(=Nc3ccc(OC(F)(F)Cl)cc3)n2CCCO)cc1)N1CCCC1 | inactive: 159%
COc1ccccc1C(=O)NCC(=O)O | inactive: 76%
Fc1cccc(Cl)c1CNCCSc1nnnn1-c1ccccc1 | inactive: 79%
Cc1ccc(Cl)cc1NC(=O)NCc1cccn1Cc1ccc(F)cc1 | inactive: 104%
O=C(Nc1ccccc1O)c1cc(S(=O)(=O)N2CCCC2)ccc1Cl | inactive: 47%
COc1ccc2c(c1)c1c(c(=O)n(-c3ccc(OC)c(OC)c3)c(=O)n1CC(=O)N1CCCC1)n2C | inactive: 122%
Cc1ccc(CNC(=O)CSc2ncc(S(=O)(=O)c3ccc(C)c(Cl)c3)c(=O)[nH]2)cc1 | inactive: 77%
Cc1ccc(NC(=O)N2CCN(c3nnc(C)c4c(C)n(-c5ccc(Cl)cc5)nc34)CC2)c(C)c1 | inactive: 101%
COC(=O)c1ccccc1NC(=O)c1cc(C)nc2c1c(C)nn2-c1ccc(C)cc1 | inactive: 75%
Nc1ccc(N2CCOCC2)c(N)c1 | inactive: 74%

Compound | survival
COc1ccc(OC)c(NC(=O)CSC2=Nc3ccccc3C3=NC(CC(=O)NCc4ccc(F)cc4)C(=O)N23)c1 (stereo unspecified) | active: 52%
COc1cc(OC)c(NC(=O)n2ncc3cc(Cl)ccc32)cc1Cl | inactive: 100%
COc1cccc(OCC(=O)NC2CC(=O)N(c3ccc4c(c3)OCCO4)C2)c1 (stereo unspecified) | inactive: 81%
COc1cc(Cl)c(C)cc1NC(=O)CSc1nc2c(c(=O)[nH]1)CCCC2 | inactive: 58%
CCOC(=O)c1cccc(NC(=O)CC2C(=O)N(c3ccc(C)cc3)C(=O)N2Cc2cccc(OC)c2)c1 (stereo unspecified) | inactive: 115%
CN(C)c1ccc(CNC(=O)c2cnc3sc(N4CCCCCC4)nn3c2=O)cc1 | inactive: 102%
COC(=O)N1CCCc2cc(S(=O)(=O)N3CCN(c4ccccc4)CC3)ccc21 | inactive: 75%
CCCCNC(=O)CCCn1c(=O)c2ccccc2n(Cc2c(C)cc(C)cc2C)c1=O | inactive: 90%
Cc1ccc(C)c(Cn2c(=O)n(CCC(=O)NCc3ccc4c(c3)OCO4)c(=O)c3sccc32)c1 | inactive: 65%
Cc1cccc(Cc2c(C)nc3nc(SCc4ccccc4Cl)nn3c2C)c1 | active: -9%
COc1ccc(-c2nc(C)c(CCNC(=O)c3c(F)cccc3F)s2)cc1 | inactive: 84%
CCOc1ccc(OCC)c(NC(=O)CCc2nc3cccnc3n2Cc2cccs2)c1 | inactive: 73%
O=C(NN1C(=O)C2C3c4ccccc4C(c4ccccc43)C2C1=O)C1CC1 (stereo unspecified) | inactive: 104%
Cc1c(/C=C(\C#N)C(=O)Nc2cccc(Cl)c2)c2ccccc2n1Cc1ccccc1 | inactive: 80%
Cn1c(=O)c2c(SCC(=O)NCc3ccc(F)cc3)nc(-c3ccccc3Cl)nc2n(C)c1=O | inactive: 76%
CC1CCN(CC(=O)Nc2ccc3ccccc3c2)CC1 | inactive: 107%
Cc1ccc(NS(=O)(=O)c2ccc3c(c2)[C@H]2C=CC[C@H]2[C@@H](c2ccc(F)cc2)N3)cc1C | inactive: 58%
CCCC(c1nnnn1Cc1ccccc1)N1CCN(c2ccccc2)CC1 (stereo unspecified) | active: 42%
